Measurements published in PubChem BioAssay (NCATS).
The other results are listed elsewhere or left out. Shown are side measurements of this screen, not its main read-out; they come without a call. Most of these compounds were active or inconclusive in the main read-out, so they are no random draw. Words in brackets tell the shape of the fitted curve; partial curves, single points and poor fits give uncertain potencies.

Assay: qHTS Assay for Lipid Storage Modulators (AID 1519)
Settings: Drosophila S3 cells, BODIPY lipid droplet/cell ratio, laser cytometry; measured here: lipid (BODIPY) channel AC50; cells loaded with oleic acid
Method in brief: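 Cells seeded at 5,000 per well were treated with compounds over a concentration series and loaded with oleic acid (400 uM, as added). Lipid droplet fluorescence (488 nm excitation, 500-530 nm channel) was read by laser-scanning cytometry and normalized to 20 uM Triacsin C.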
Tags describe the fitted curve by direction and shape.

SMILES	AC50
Cc1cc(C)c(S(=O)(=O)Nc2ccccc2C(F)(F)F)c(C)c1	17.8 µM [rising, partial curve, poor fit]
COc1ccccc1-c1cncnc1NCc1cccs1	0.355 µM [rising, full curve, poor fit]
COc1ccccc1-c1nc(N(C)Cc2ccco2)c2ccccc2n1	0.562 µM [rising, full curve, poor fit]
COc1ccc(CNc2ncnc3ccc(-c4ccccc4OC)cc23)c(OC)c1	3.98 µM [rising, single point]
COc1cc2cc3c4c(cc(OC)c(OC)c4c2cc1OC)CCN3C	0.398 µM [rising, full curve, poor fit]
COc1ccccc1CNc1nc(-c2ccc(C(=O)N(C)C)cc2)nc2ccccc12	0.00891 µM [rising, full curve, poor fit]
COc1cccc(Cn2c(=O)c(C)nc3cnc(OCc4ccccc4)nc32)c1	0.0251 µM [rising, full curve, poor fit]
COc1ccccc1CNc1ncnc2ccc(-c3ccc4c(c3)OCO4)cc12	0.251 µM [rising, full curve, poor fit]
COc1ccccc1N1CCN(C[C@@H](O)COc2cccc3ccccc23)CC1	15.8 µM [rising, partial curve]
Cc1noc(C)c1C(=O)N1CCC2(CCCN(c3ncccn3)C2)CC1	0.0398 µM [rising, full curve, poor fit]
COc1ccccc1-c1nc(NCc2ccccc2)c2ccccc2n1	39.8 µM [falling, single point]
CC(C)C[C@@H](NC(=O)OCC1c2ccccc2-c2ccccc21)C(=O)O	14.1 µM [rising, partial curve, poor fit]
O=c1cc(-c2ccccc2)oc2c1ccc1ccccc12	0.178 µM [rising, full curve, poor fit]
COc1cccc(-c2ccc3ncnc(NCc4cccnc4)c3c2)c1	5.01 µM [rising, partial curve, poor fit]
Nc1cc(=O)[nH]c(N)n1	3.16 µM [falling, full curve, poor fit]
Cc1ccc(S(=O)(=O)/C=C\C#N)cc1	5.62 µM [falling, full curve]

SMILES	AC50
COc1cccc(-c2ccc3ncnc(Nc4ccccc4)c3c2)c1	0.447 µM [rising, full curve]
Cc1c(-c2ccccc2)oc2cc(O)ccc2c1=O	28.2 µM [rising, partial curve, poor fit]
COc1cccc(Cn2c(=O)c(-c3ccccc3)nc3cnc(OC)nc32)c1	0.794 µM [rising, full curve]
Clc1ccccc1CNCC1CCC(CNCc2ccccc2Cl)CC1 (stereo unspecified)	35.5 µM [rising, partial curve, poor fit]
Cc1ccccc1-c1nc(N(C)Cc2ccco2)c2ccccc2n1	1.12 µM [rising, full curve]
CNCC[C@@H](Oc1ccccc1C)c1ccccc1	12.6 µM [rising, partial curve, poor fit]
COc1cccc(OC)c1OCCNC[C@@H]1COc2ccccc2O1	12.6 µM [rising, partial curve, poor fit]
Cn1cccc1C(=O)N1CCC2(CCCN(c3ccccn3)C2)CC1	0.562 µM [rising, full curve, poor fit]
COc1ccc(CNc2ncncc2-c2ccccc2OC)c(OC)c1	2.24 µM [rising, partial curve, poor fit]
CN(Cc1ccco1)c1ncnc2ccc(-c3ccccc3Cl)cc12	0.794 µM [rising, full curve]
COc1c(-c2ccccc2)oc2c(ccc3occc32)c1=O	0.282 µM [rising, full curve, poor fit]
Cc1c(Cl)cccc1Nc1ccccc1C(=O)O	31.6 µM [rising, partial curve]
COc1ccccc1-c1cc(=O)c2cc(O)ccc2o1	1.78 µM [rising, full curve]
CCCCCCCNS(=O)(=O)c1cccc2c(Cl)cccc12	14.1 µM [rising, partial curve, poor fit]
CCOC(=O)C1=C[C@@]2(CC)CCCN3CCc4c(n1c1ccccc41)[C@H]32	39.8 µM [rising, partial curve, poor fit]
